According to the supplement of paper PMC12230231:

Test system: SIVsab (simian immunodeficiency virus of sabaeus monkeys), single-cycle GFP reporter, in CRFK cells
Experiment: enrichment among uninfected cells over input (fold); higher = stronger restriction
Description: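 Pools of CRFK cells expressing variants of the TRIM5α v1 loop were challenged with the single-cycle reporter, sorted by GFP and sequenced; mean of two replicates.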

[1] = library: insertions and deletions

Row | Sequence | enrichment [1] | enrichment (library: human / rhesus combinations)
1 | MASGILVNVKEEVTCPICLELLTQPLSLDCGHSFCQACLTANHKKSMLDKGESSCPVCRISYQPENIRPNRHVANIVEKLREVKLSPEGQKVDHCARHGEKLLLFCQEDGKVICWLCERSQEHRGHHTFLTEEVAREYQVKLQAALEMLRQKQQEAEELEADIREEKASWKTQIQYDKTNVLADFEQLRDILDWEESNELQNLEKEEEDILKSLTNSETEMVQQTQSLRELISDLEHRLQGSVMELLQGVDGVIKRTENVTLKKPETFPKNQRRVFRAPDLKGMLEVFRELTDVRRYWVDVTVAPNNISCAVISEDKRQVSSPKPQIIYGARGGTRYQTFVNFNYCTGILGSQSITSGKHYWEVDVSKKTAWILGVCAGFQPDAMCNIEKNENYQPKYGYWVIGLEEGVKCSAFQDSSFHTPSVPFIVPLSVIICPDRVGVFLDYEACTVSFFNITNHGFLIYKFSHCSFSQPVFPYLNPRKCGVPMTLCSPSS [human TRIM5α, 1-codon duplication at 333] | 0.609 ± 0.52 | –
2 | MASGILVNVKEEVTCPICLELLTQPLSLDCGHSFCQACLTANHKKSMLDKGESSCPVCRISYQPENIRPNRHVANIVEKLREVKLSPEGQKVDHCARHGEKLLLFCQEDGKVICWLCERSQEHRGHHTFLTEEVAREYQVKLQAALEMLRQKQQEAEELEADIREEKASWKTQIQYDKTNVLADFEQLRDILDWEESNELQNLEKEEEDILKSLTNSETEMVQQTQSLRELISDLEHRLQGSVMELLQGVDGVIKRTENVTLKKPETFPKNQRRVFRAPDLKGMLEVFRELTDVRRYWVDVTVAPNNISCAVISEDKRQVSSPKPQIIYGARGTRYGARGTRYQTFVNFNYCTGILGSQSITSGKHYWEVDVSKKTAWILGVCAGFQPDAMCNIEKNENYQPKYGYWVIGLEEGVKCSAFQDSSFHTPSVPFIVPLSVIICPDRVGVFLDYEACTVSFFNITNHGFLIYKFSHCSFSQPVFPYLNPRKCGVPMTLCSPSS [human TRIM5α, 7-codon duplication at 329] | 0.225 ± 0.085 | –
3 | MASGILVNVKEEVTCPICLELLTQPLSLDCGHSFCQACLTANHKKSMLDKGESSCPVCRISYQPENIRPNRHVANIVEKLREVKLSPEGQKVDHCARHGEKLLLFCQEDGKVICWLCERSQEHRGHHTFLTEEVAREYQVKLQAALEMLRQKQQEAEELEADIREEKASWKTQIQYDKTNVLADFEQLRDILDWEESNELQNLEKEEEDILKSLTNSETEMVQQTQSLRELISDLEHRLQGSVMELLQGVDGVIKRTENVTLKKPETFPKNQRRVFRAPDLKGMLEVFRELTDVRRYWVDVTVAPNNISCAVISEDKRQVSSPKYGARGTRYQTFVNFNYCTGILGSQSITSGKHYWEVDVSKKTAWILGVCAGFQPDAMCNIEKNENYQPKYGYWVIGLEEGVKCSAFQDSSFHTPSVPFIVPLSVIICPDRVGVFLDYEACTVSFFNITNHGFLIYKFSHCSFSQPVFPYLNPRKCGVPMTLCSPSS [human TRIM5α, 4-codon deletion at 325] | 0.705 ± 0.16 | –
4 | MASGILVNVKEEVTCPICLELLTQPLSLDCGHSFCQACLTANHKKSMLDKGESSCPVCRISYQPENIRPNRHVANIVEKLREVKLSPEGQKVDHCARHGEKLLLFCQEDGKVICWLCERSQEHRGHHTFLTEEVAREYQVKLQAALEMLRQKQQEAEELEADIREEKASWKTQIQYDKTNVLADFEQLRDILDWEESNELQNLEKEEEDILKSLTNSETEMVQQTQSLRELISDLEHRLQGSVMELLQGVDGVIKRTENVTLKKPETFPKNQRRVFRAPDLKGMLEVFRELTDVRRYWVDVTVAPNNISCAVISEDKRQVSSPKPQIIYGAPGTRYTFQTLVNFNYCTGILGSQSITSGKHYWEVDVSKKTAWILGVCAGFQPDAMCNIEKNENYQPKYGYWVIGLEEGVKCSAFQDSSFHTPSVPFIVPLSVIICPDRVGVFLDYEACTVSFFNITNHGFLIYKFSHCSFSQPVFPYLNPRKCGVPMTLCSPSS [human TRIM5α, 330-340 = GAPGTRYTFQTLV] | – | 0.491 ± 0.055

± gives the standard deviation of the averaged measurements. Restriction of a single-cycle SIVsab GFP reporter by TRIM5α v1-loop variants in CRFK cells. Human variants: read share among cells still uninfected after two challenges over input, higher = gained restriction. Rhesus variants: share among infected cells over input, higher = lost restriction. Reporter dose not given per row. No active / inactive call per row; the paper calls a change when both replicates lie above its controls (mean + 2 SD of stop or wild-type variants, or the top frameshift score). Residues outside the varied loop are taken from Swiss-Prot. The paper reads the human single-substitution scores as noise; they and the rhesus combinations repeat poorly (rank correlation 0.3 to 0.4), indel scores repeat only for the top variants, rhesus substitutions well (0.9).
